{
  "source": "patent US20120107297",
  "proteins": {"B1": {"name": "GST-UCP (protein)", "chain": "[no letters for about 200 residues]MNSNVENLPPHIIRLVYKEVTTLTADPPDGIKVFPNEEDLTDLQVTIEGPEGTPYAGGLFRMKLLLGKDFPASPPKGYFLTKIFHPNVGANGEICVNVLKRDWTAELGIRHVLLTIKCLLIHPNPESALNEEAGRLLLENYEEYAARARLLTEIHGGAGGPSGRAEAGRALASGTEASSTDPGAPGGPGGAEGPMAKKHAGERDKKLAAKKKTDKKRALRRL"}},
  "biological_target": "Flag-VHL, P40337",
  "sequence (P40337 whole entry, looked up)": "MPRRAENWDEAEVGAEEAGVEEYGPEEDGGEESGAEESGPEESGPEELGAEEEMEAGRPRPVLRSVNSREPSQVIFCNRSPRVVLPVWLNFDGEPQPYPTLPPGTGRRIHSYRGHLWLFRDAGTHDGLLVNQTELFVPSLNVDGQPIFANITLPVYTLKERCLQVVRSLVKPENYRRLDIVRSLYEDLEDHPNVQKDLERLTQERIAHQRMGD",
  "data": [
    {"protein": "B1", "values": [
      {"measurement": "in vitro multiubiquitination of VHL (Western blot, FIG. 17)", "value": "wild type UCP induces in vitro multiubiquitination of VHL"},
      {"measurement": "in vitro ubiquitination of VHL (E1, His-ubiquitin, Ni-NTA pull-down, Western blot)", "value": "in vitro ubiquitination of VHL by UCP was detected"},
      {"measurement": "in vitro ubiquitination of VHL (E1, His-ubiquitin, anti-Flag-agarose and Ni-NTA precipitation, Western blot)", "value": "VHL ubiquitination directly catalyzed by the wild type UCP was detected in vitro"}
    ]}
  ]
}
